According to the supplement of paper PMC10126150:
Values marked as one replicate rest on one cluster of the flow cell; about a third of the high ones do not repeat.

System: ATP
Assay: switch fluorescence ratio, 500 uM ATP over buffer (Cy3 cluster intensity, sum of 5 cycles each) (fold (ratio)); higher = stronger signal-on switching upon ATP binding; sequences stand for … in TCGTCGGCAGCGTCAGATGTGTATAAGAGACAGTTTTTTTTTTTTTTTTTTTTTTTTT…TC
Conditions: aptamer strand: ATP DNA aptamer (quencher-CACCTGGGGGAGTATTGCGGAGGAAGG + anchor), 100 nM annealed; ATP concentration: 500 uM; one replicate
Procedure, shortened: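 Exposure to 500 uM ATP lasted 15 min at 22 °C before imaging, and a selection-buffer image was taken beforehand, for Cy3-labelled switching-strand clusters on a modified Illumina MiSeq flow-cell annealed to 100 nM quencher-labelled ATP aptamer. Five buffer/ATP cycles were run with NaOH stripping and re-annealing between them. The fluorescence ratio per cluster is summed target-cycle over summed buffer-cycle Cy3 intensity, averaged per switch-domain sequence. Clusters outside 100-1000 RFU were excluded.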

TGGTCCAGGA showed a switch fluorescence ratio of 1.
TATGCTTTGC gave a switch fluorescence ratio of 0.975.
Work on TATCGGGAAC yielded a switch fluorescence ratio of 1.01.
Sequence GGTTTTAACT has a switch fluorescence ratio of 0.985.
Work on AGCACGCTTC yielded a switch fluorescence ratio of 1.05.
Work on AGGCCGCTGT yielded a switch fluorescence ratio of 0.956.
Sequence TTGTTATCGT has a switch fluorescence ratio of 0.982.
CCTCCCCAGC was tested, and the switch fluorescence ratio was 2.55.
AGGTTGGGAG showed a switch fluorescence ratio of 1.02.
Work on ATGATGTCTC yielded a switch fluorescence ratio of 0.977.
GAGCATAATA showed a switch fluorescence ratio of 1.2.
For TCTCGGGTCC, the switch fluorescence ratio was 1.02.
ATTGTTCATG showed a switch fluorescence ratio of 1.02.
AAAATAAGTG was tested, and the switch fluorescence ratio was 0.97.
Work on GCGCAGTGCA yielded a switch fluorescence ratio of 1.03.
ATAGTCAA showed a switch fluorescence ratio of 0.986.
With GATGGTAT the switch fluorescence ratio was 1.04.
With GCTGCGCAGA the switch fluorescence ratio was 1.15.
In the case of CGTAGCCAGG, the switch fluorescence ratio is reported as 1.19.
Work on GTGACTGATA yielded a switch fluorescence ratio of 1.01.
In the case of ACAATAGTCG, the switch fluorescence ratio is reported as 1.11.
TCGAGAATTT gave a switch fluorescence ratio of 0.993.
TGTAGATCTC was tested, and the switch fluorescence ratio was 1.
In the case of GAACCGGCTG, the switch fluorescence ratio is reported as 1.04.
CAGGTGTGCC showed a switch fluorescence ratio of 1.03.
Work on GCCGCGGATA yielded a switch fluorescence ratio of 1.17.
ATTGGCGTGT gave a switch fluorescence ratio of 1.02.
ACTTGCGTA gave a switch fluorescence ratio of 1.02.
With ACCTCAGCGC the switch fluorescence ratio was 1.43.
ATCCGTTGCA gave a switch fluorescence ratio of 1.12.
CTGGATCGG showed a switch fluorescence ratio of 1.02.
With CAGGAGTATG the switch fluorescence ratio was 1.02.
Work on AATAACTTG yielded a switch fluorescence ratio of 0.949.
TAAGACGGTG showed a switch fluorescence ratio of 1.02.
For AGAGCCCCGG, the switch fluorescence ratio was 0.995.
GACCCGTCTT was tested, and the switch fluorescence ratio was 1.09.
For CTTAAGGCTA, the switch fluorescence ratio was 0.999.
ATATCTGTAG was tested, and the switch fluorescence ratio was 0.987.
GTGAGACCGC gave a switch fluorescence ratio of 1.09.
GCGTGACG gave a switch fluorescence ratio of 1.06.
CAAATGTTCT showed a switch fluorescence ratio of 0.994.
With GCAAATTCTC the switch fluorescence ratio was 1.16.
For GCGGTGTCAT, the switch fluorescence ratio was 1.05.
With CGTCCAAGTT the switch fluorescence ratio was 0.999.
For GAACGTGGGA, the switch fluorescence ratio was 1.07.
In the case of CGCAGCTGAA, the switch fluorescence ratio is reported as 1.87.
For ATTAGACGGT, the switch fluorescence ratio was 1.36.
In the case of GTCAAAAACT, the switch fluorescence ratio is reported as 1.09.
CTTGACGGGT showed a switch fluorescence ratio of 1.02.
TGAAAGTATG was tested, and the switch fluorescence ratio was 1.
TGCTTAGACG gave a switch fluorescence ratio of 0.986.
ACCGTGTAAT showed a switch fluorescence ratio of 1.03.
For GAGATGCTTT, the switch fluorescence ratio was 1.04.
GCCTTGGGTG gave a switch fluorescence ratio of 1.02.
With GCAATGCTAG the switch fluorescence ratio was 1.74.
Work on AGTAATCAC yielded a switch fluorescence ratio of 1.15.
CCGGCGTAGT was tested, and the switch fluorescence ratio was 1.33.
Work on ATTAGTCTCG yielded a switch fluorescence ratio of 1.05.
Work on CATAGATTCG yielded a switch fluorescence ratio of 0.996.
Work on TGTCCGTTGC yielded a switch fluorescence ratio of 1.11.
Work on TAGGTGGGT yielded a switch fluorescence ratio of 1.01.
In the case of CATCGTTACG, the switch fluorescence ratio is reported as 1.02.
TAGACATCT showed a switch fluorescence ratio of 1.01.
For ACCAGTCGC, the switch fluorescence ratio was 1.
CGCTGGGTTA showed a switch fluorescence ratio of 1.01.
In the case of GCTACCGATC, the switch fluorescence ratio is reported as 1.3.
In the case of TATGGGGT, the switch fluorescence ratio is reported as 0.98.
Work on CCTAAATTT yielded a switch fluorescence ratio of 0.975.
CGTATGCCCT showed a switch fluorescence ratio of 0.977.
Sequence GACGGGGGAG has a switch fluorescence ratio of 0.983.
CCCGGATGCC showed a switch fluorescence ratio of 0.967.
Work on CAATAATGTC yielded a switch fluorescence ratio of 1.08.
For GAGATTCTGA, the switch fluorescence ratio was 1.06.
ACGGAATCAA was tested, and the switch fluorescence ratio was 1.11.
In the case of TACTTGTCA, the switch fluorescence ratio is reported as 1.
Work on GTCTGGGGTT yielded a switch fluorescence ratio of 0.983.
AACCAGGCTG showed a switch fluorescence ratio of 1.07.
Work on TTCTATGTGT yielded a switch fluorescence ratio of 0.995.
For TTTTCGCCAG, the switch fluorescence ratio was 1.02.
For GAACAGGTGG, the switch fluorescence ratio was 1.05.
With ATTCCGTAGG the switch fluorescence ratio was 1.02.
With TAAACTTATT the switch fluorescence ratio was 1.01.
In the case of CGATTGCTCT, the switch fluorescence ratio is reported as 1.04.
Sequence ATTAGCTGGA has a switch fluorescence ratio of 0.917.
AGGTAGACAG gave a switch fluorescence ratio of 0.993.
Sequence ATCAGGATGG has a switch fluorescence ratio of 1.05.
GATTTATAAA showed a switch fluorescence ratio of 1.01.
CCGGAGACGA was tested, and the switch fluorescence ratio was 4.4.
GATAAAGGGG was tested, and the switch fluorescence ratio was 1.01.
For TTTAGGGGCA, the switch fluorescence ratio was 0.985.
CGTATCAAGG showed a switch fluorescence ratio of 1.01.
In the case of ATGGTAATAT, the switch fluorescence ratio is reported as 1.01.
CAAAGCTCTT was tested, and the switch fluorescence ratio was 1.
For ACTTAGAGGG, the switch fluorescence ratio was 1.01.
CGAGAGCGCA gave a switch fluorescence ratio of 0.936.
CAACTAATA gave a switch fluorescence ratio of 1.04.
CGGGAGCCGT gave a switch fluorescence ratio of 1.12.
Sequence CCTGAAAGGA has a switch fluorescence ratio of 1.01.
ATCGTATATT was tested, and the switch fluorescence ratio was 0.995.
Work on GTAGGGAGCC yielded a switch fluorescence ratio of 1.04.
For TGTCGGAAGT, the switch fluorescence ratio was 1.02.
GCGGGGAGT gave a switch fluorescence ratio of 1.05.
TGAGTGGGCA showed a switch fluorescence ratio of 1.02.
In the case of GTTTTAGATG, the switch fluorescence ratio is reported as 0.983.
Work on CTCTCAAGAT yielded a switch fluorescence ratio of 1.27.
With GAAAGGCGTA the switch fluorescence ratio was 1.02.
For TTTCTAGTAG, the switch fluorescence ratio was 0.99.
CGTCGGTGCT gave a switch fluorescence ratio of 0.985.
AAGGAACGTA was tested, and the switch fluorescence ratio was 1.04.
TACAGTTACG was tested, and the switch fluorescence ratio was 1.3.
Sequence TTTGGCATTG has a switch fluorescence ratio of 1.04.
AAGTACTCGG was tested, and the switch fluorescence ratio was 1.15.
TTAGGCCATG showed a switch fluorescence ratio of 1.06.
Work on GATGGGCGGC yielded a switch fluorescence ratio of 1.05.
CCCGGAGTTA gave a switch fluorescence ratio of 1.34.
Work on ACAGCCCAT yielded a switch fluorescence ratio of 1.06.
CTCATGGCTT gave a switch fluorescence ratio of 1.01.
In the case of CTTCAGTCTG, the switch fluorescence ratio is reported as 0.979.
In the case of TACGGAACGT, the switch fluorescence ratio is reported as 1.04.
For TCCTCTCGGA, the switch fluorescence ratio was 1.41.
Sequence TCGTCAGG has a switch fluorescence ratio of 1.
In the case of GGCATGAGCT, the switch fluorescence ratio is reported as 0.99.
For CGGGCGCTTG, the switch fluorescence ratio was 0.998.
With GAGTTAGTCT the switch fluorescence ratio was 0.913.
TTGTAGGTGC gave a switch fluorescence ratio of 1.1.
Work on TCAAGAAGC yielded a switch fluorescence ratio of 1.32.
For ATAGTAGTTG, the switch fluorescence ratio was 0.995.
For GGGCATATAA, the switch fluorescence ratio was 1.07.
TTGTGCCTTG showed a switch fluorescence ratio of 1.02.
In the case of TCGGGCGAAA, the switch fluorescence ratio is reported as 1.
Sequence TCGAAATATG has a switch fluorescence ratio of 1.01.
CCCCCAGTGT was tested, and the switch fluorescence ratio was 3.5.
In the case of TTCCAACGGC, the switch fluorescence ratio is reported as 1.06.
CAGAATGAAG was tested, and the switch fluorescence ratio was 0.998.
TCCGGGGCCC gave a switch fluorescence ratio of 2.47.
Sequence GTATGGC has a switch fluorescence ratio of 1.
Sequence TGCATGGATG has a switch fluorescence ratio of 1.
With CGGGATTACA the switch fluorescence ratio was 0.99.
In the case of CCAGTTATTT, the switch fluorescence ratio is reported as 1.
Work on GCGTCGGAAA yielded a switch fluorescence ratio of 1.44.
In the case of AGATGCCTTA, the switch fluorescence ratio is reported as 0.98.
Work on GCACCGTTCG yielded a switch fluorescence ratio of 1.03.
GAATTTATAG gave a switch fluorescence ratio of 0.945.
TTTATTATCT gave a switch fluorescence ratio of 1.07.
TTGATTCCGC showed a switch fluorescence ratio of 1.57.
In the case of TTACCCAGGA, the switch fluorescence ratio is reported as 1.41.
GACGGAGGTC gave a switch fluorescence ratio of 1.
For AGACATAGT, the switch fluorescence ratio was 1.03.
For CAAGATTGGG, the switch fluorescence ratio was 1.01.
TCCGTTATT showed a switch fluorescence ratio of 5.11.
GGACTACGCC showed a switch fluorescence ratio of 1.45.
For CATAACGATC, the switch fluorescence ratio was 1.01.
Sequence TAGCGGGAAT has a switch fluorescence ratio of 0.977.
With GCCAGTTCAC the switch fluorescence ratio was 1.02.
Sequence GACCCGTAAA has a switch fluorescence ratio of 1.22.
Work on CGCCCTGGCA yielded a switch fluorescence ratio of 1.01.
TCCGGATACC gave a switch fluorescence ratio of 1.7.
TGGTGAGTGG was tested, and the switch fluorescence ratio was 0.996.
For TAGCATCTTC, the switch fluorescence ratio was 1.12.
CGGGTCAATA showed a switch fluorescence ratio of 1.62.
In the case of ATCAAGGAGG, the switch fluorescence ratio is reported as 0.984.
Work on TTGCCCAATG yielded a switch fluorescence ratio of 1.03.
With AATGGGCCGT the switch fluorescence ratio was 0.973.
In the case of TGTAGGTGCT, the switch fluorescence ratio is reported as 1.07.
TTCCGAGCT showed a switch fluorescence ratio of 2.44.
For ATCTCTAACG, the switch fluorescence ratio was 0.967.
GGGACATGCA gave a switch fluorescence ratio of 0.961.
CTATATCAGG showed a switch fluorescence ratio of 1.08.
With TATGTAACAT the switch fluorescence ratio was 1.36.
GATGAGGGC was tested, and the switch fluorescence ratio was 0.977.
Work on GGTGACGATA yielded a switch fluorescence ratio of 1.03.
AGTTACTGCC gave a switch fluorescence ratio of 1.05.
Sequence TTACACTTCA has a switch fluorescence ratio of 1.05.
AGTGGTAAA gave a switch fluorescence ratio of 1.02.
GTAAGGCGTT showed a switch fluorescence ratio of 0.999.
In the case of CAGTAGTGGG, the switch fluorescence ratio is reported as 1.
For CTTAGTTAGG, the switch fluorescence ratio was 1.
AACCGACGCT was tested, and the switch fluorescence ratio was 3.97.
Work on GAATTCAATT yielded a switch fluorescence ratio of 1.07.
With CAATTCCGCC the switch fluorescence ratio was 1.17.
In the case of CGTCACAAGC, the switch fluorescence ratio is reported as 1.3.
TAGCCTGAGA showed a switch fluorescence ratio of 0.992.
TAATAGGTAC gave a switch fluorescence ratio of 0.976.
ATTGATTCTA gave a switch fluorescence ratio of 0.987.
Work on ATCAGTACG yielded a switch fluorescence ratio of 1.01.
TAGTTACGGG gave a switch fluorescence ratio of 1.01.
TACCACGAGC was tested, and the switch fluorescence ratio was 1.03.
In the case of ACGGAAAGGT, the switch fluorescence ratio is reported as 1.
Sequence AGCTGATCCG has a switch fluorescence ratio of 1.21.
AAAGTGCGGG was tested, and the switch fluorescence ratio was 0.982.
ACCAGTCG showed a switch fluorescence ratio of 1.09.
Sequence GCGATAGAGG has a switch fluorescence ratio of 0.914.
Work on CTTTATGAAC yielded a switch fluorescence ratio of 0.989.
CAGGAAAGTT gave a switch fluorescence ratio of 1.03.
Sequence TCGTCCTTAA has a switch fluorescence ratio of 1.1.
Work on ACTCTGCGTA yielded a switch fluorescence ratio of 2.27.
With CCGGCACCGG the switch fluorescence ratio was 0.991.
GTTTACCGTA showed a switch fluorescence ratio of 1.1.
TAACAATTCA gave a switch fluorescence ratio of 1.04.
With CAAAGCAGCT the switch fluorescence ratio was 1.
For GCTGGGAGG, the switch fluorescence ratio was 1.01.
